# Measured values published in PubChem BioAssay AID1347073 (National Center for Advancing Translational Sciences (NCATS), 2019).
# Screen size: about 45,000 compounds; about 200 (0.44%) were called active. About 7% were inconclusive and are not listed. The call rests on the fitted dose curve; in most records, active means well fitted activation curve with a large enough effect; inconclusive means small, poorly fitted or top-dose-only effect; inactive means no such curve, though single readings can be large or run the other way. Some of the results follow.
# Test: qHTS of TDP-43 Inhibitors: NCGC Sytravon Library Screen; further: 0% is about no effect; nearly all actives have a fitted effect of over 55% in size
# Details: yeast TDP-43 toxicity rescue, BacTiter-Glo growth, 24 h; series mostly up to 46.1 µM; growth rescue (activation): at the top concentration
# Summary of the method: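 TDP-43-expressing yeast, pregrown in raffinose, seeded at OD600 0.02 in galactose medium with compound for 24 hr at 30 deg C. Growth read by BacTiter-Glo luminescence, so rescue of toxicity appears as activation.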
row,Structure (SMILES),growth rescue (activation)
1,O=C1CN(C(=O)COC(=O)c2ccccc2O)c2ccccc2N1,inactive: -0.578%
2,CC(=O)c1cccc(NC(=O)N2CCC(C(=O)c3ccc(F)cc3)CC2)c1,inactive: -9.37%
3,CCC(=O)Nc1ccc(C2C(=O)c3ccccc3C2=O)cc1,inactive: -13.2%
4,C/C(=C\C(=O)OCC(=O)NCc1ccccc1)C(=O)OCC(=O)NCc1ccccc1,inactive: -0.0188%
5,COc1ccc(Cl)c(-c2cc(C(=O)Nc3ccccc3)[nH]n2)c1,inactive: 1.2%
6,CN1C(=S)SC2CS(=O)(=O)CC21C (stereo not drawn),inactive: 3.27%
7,CCCCC(CC)C(=O)NCC(C)NC(=O)C(CC)CCCC (stereo not drawn),inactive: 13.8%
8,CCC(C)C(=O)Nc1cc(Cl)ccc1C(=O)O (stereo not drawn),inactive: 13.7%
9,COc1ccc([N+](=O)[O-])cc1NC(=O)CSc1nc(C)c(C)c(C)n1,inactive: 0.83%
10,COc1cccc(CNC(=O)CSc2cc(=O)n(C)c3ccccc23)c1,inactive: 16.2%
11,Cc1cccc(N2CCN(C(=O)CCc3nc4ccccc4c(=O)[nH]3)CC2)c1C,inactive: 15.8%
12,CN(C)S(=O)(=O)c1cccc(NC(=O)CCNC(=O)c2ccccc2Cl)c1,inactive: 1.79%
13,O=c1[nH]ncc(N2CCCC2)c1Cl,inactive: 2.19%
14,Cc1ccc(Nc2nc(-c3ccc(S(=O)(=O)N4CCOCC4)cc3)cs2)cc1Cl,inactive: -12.2%
15,O=C(CCC(=O)c1ccc(F)cc1)Nc1cc(Cl)cc(Cl)c1,inactive: 18.6%
16,O=C(O)CSc1nnc(COc2ccc(Br)cc2)n1-c1ccccc1,inactive: 6.48%
17,COc1cccc(OC)c1C(=O)Nc1ccc([N+](=O)[O-])cn1,inactive: 19.6%
18,O=C(c1cc(S(=O)(=O)N2CCOCC2)ccc1Cl)N1CCCCC1CO (stereo not drawn),inactive: 3.67%
19,Cc1ccccc1CSc1nnc([C@@H]2CCCN2)o1,inactive: 4.34%
20,Cc1onc(-c2ccccc2)c1C(=O)OCC(=O)N(C)c1ccccc1,inactive: 13.1%
21,Cc1ccc(N(CC(=O)NC2CCCC2)C(=O)CCC(=O)Nc2ccccn2)cc1C,inactive: 7.76%
22,CC(=O)Oc1ccc(C)cc1N1C(=O)c2ccc(C(=O)O)cc2C1=O,inactive: -10.3%
23,COc1ccc(-c2nc(S(=O)(=O)c3ccc(Cl)cc3)c(N3CCCCCC3)o2)cc1,inactive: -1.33%
24,COc1ccc(-n2nc(C(=O)NCC(=O)NCCCN3CCN(C)CC3)c3ccccc3c2=O)cc1OC,inactive: -17.2%
25,CC(=O)Nc1ccc(S(=O)(=O)NCC2CCC(C(=O)NCCCN3CCCC3=O)CC2)cc1 (stereo not drawn),inactive: 15.7%
26,O=S(=O)(NCc1cccnc1)c1ccc(Br)c2ccccc12,inactive: 20.1%
27,O=C(O)c1ccccc1C(=O)c1cccs1,inactive: 12.3%

row,Structure (SMILES),growth rescue (activation)
1,COc1ccc(-n2c(=S)[nH]c3cc(C(=O)NCc4ccco4)ccc3c2=O)cc1OC,inactive: -0.459%
2,C[C@H](NC(=O)c1ccco1)C(=O)OCC(=O)N1CC(=O)Nc2ccccc21,inactive: -1.02%
3,CN(C)c1ccc(-c2ccnc3c2CC(C)(C(=O)Nc2ccc4c(c2)OCO4)O3)cc1 (stereo not drawn),inactive: 8.36%
4,COc1cc(NC(=O)c2ccccc2F)ccc1NC(=O)c1ccccc1Cl,inactive: -2.94%
5,CC(C)Oc1ccc(C2CC(=O)N(c3cccc(/C=C/C(=O)O)c3)C2=O)cc1 (stereo not drawn),inactive: 11.1%
6,C=CCn1c(SCC(=O)N(C)C2CCCCC2)nnc1C1CC1,inactive: 15%
7,Cc1cccc(Nc2nnc(SCC(=O)NCC3CCCO3)s2)c1 (stereo not drawn),inactive: 5.47%
8,CCN(C(=S)NC(=O)c1ccccc1Br)C1CCCCC1,inactive: 8.45%
9,CCCOC(=O)Nc1ccc(S(=O)(=O)Nc2ncccn2)cc1,inactive: 5.21%
10,NS(=O)(=O)c1cc(C(=O)N=Nc2c(O)[nH]c3ccccc23)ccc1Cl,inactive: -4.45%
11,Cc1ccc(S(=O)(=O)N2CCN(S(=O)(=O)c3ccc4c(c3)OCCO4)CC2)cc1,inactive: -31.3%
12,CCn1cc2nc(SCC(=O)Nc3ccc(OC)cc3OC)n(Cc3ccc(OC)cc3)c(=O)c2n1,inactive: 7.91%
13,CCCC(=O)N1CCC1(C)C(=O)NS(=O)(=O)c1ccc(F)cc1F (stereo not drawn),inactive: -2.46%
14,COCCNC(=O)C1CCCN(C(=O)C2(c3ccc(Cl)cc3)CCCC2)CC1 (stereo not drawn),inactive: 1.63%
15,Cc1nc2cc(-c3ccc(Cl)cc3)nn2c(NCCN(C)C)c1C,inactive: 1.99%
16,COc1ccc(CCNC(=O)CN2C(=O)CCSc3ccccc32)c(OC)c1,inactive: 5.3%
17,N#CCC(=O)Nc1ccc(C(=O)NNC(=S)NC2CC2)cc1,inactive: 0.0567%
18,O=C(COc1ccc(S(=O)(=O)N2CCCCC2)cc1)NCC1CCCO1 (stereo not drawn),inactive: -2.43%
19,Cc1ccnc(Cc2ccccc2)n1,inactive: 1.62%
20,O=C(C1CCCN(S(=O)(=O)c2ccc(F)cc2)C1)N1CCCC1 (stereo not drawn),inactive: 23.2%
21,CC(C)(C)c1ccc(C(=O)N2CCC(C(=O)NC3CCCCCC3)CC2)cc1,inactive: 24.8%
22,Cc1ccc(NC2=NCC(Cc3ccc(Br)cc3)S2)cc1 (stereo not drawn),inactive: 8.16%
23,C/C(CCc1ccc2c(c1)OCO2)=N\NC(=O)c1ccccc1Br,inactive: 5.57%
24,O=C(/C=C/c1ccccc1)OCCCN=C1NS(=O)(=O)c2ccccc21,inactive: -2.48%
25,CCOc1ccc(NC(=O)N2CC=C(n3c(=O)[nH]c4ccccc43)CC2)cc1,inactive: 14.8%
26,COc1ccccc1NC(=O)CN1CCN(C(=O)C2CCCO2)CC1 (stereo not drawn),inactive: 2%
